From the supplement of paper PMC11417369
Some of the results follow.

system: PfAP2-HC AP2 domain (GST-tagged); test: gcPBM binding intensity (ln(normalized median fluorescence intensity)); higher = stronger DNA binding
Outline: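 Binding intensity values are the highest Masliner-normalised natural-log median intensity among replicate spots of either probe orientation. The binding step lasted 1 h in 1× PBS with 1% milk, 0.2 mg/ml BSA, 0.5% salmon testes DNA and 0.03% Triton X-100, using GST-tagged P. falciparum DNA-binding domains expressed in E. coli on an Agilent 4 × 180k array of primer-extended double-stranded 36-bp intergenic genomic probes plus negative controls. Alexa488 anti-GST antibody and a 488 nm scan detected bound protein.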

**Q.** With “TATTTATTTATTTATTGTACATAAGTATATATTATA [XGTACX_site6566]” as the sequence, how does the “gcPBM binding intensity (ln)” value read?
**A.** 9.65

**Q.** For “GAACCACTAAAATGAGCATGCTCATATTTACATATA [TGCATGCA_site1033]”, which “gcPBM binding intensity (ln)” value is on record?
**A.** 9.7

**Q.** Which “gcPBM binding intensity (ln)” value does the source give for “AAAAAGTAGTAAAACAGTACAGTATTTATGCCTATT [XGTACX_site6434]” here?
**A.** 9.89

**Q.** With “AAAAAAAAAAAAAGTACACACTTTTGCGTACATGTA [CACACA_site7449]” as the sequence, how does the “gcPBM binding intensity (ln)” value read?
**A.** 9.65

**Q.** “CATTATTATGATAGTTGTACAATTTTTATAAAAAAT [XGTACX_site4411]” was tested. Which “gcPBM binding intensity (ln)” value did it give?
**A.** 9.45

**Q.** How did the “gcPBM binding intensity (ln)” value turn out when “ATAAAAATAAAAAGATGTACGTATTTTTTTTTTTTT [XGTACX_site5329]” was run?
**A.** 9.59

**Q.** With “GAAATAGAGAAACACACACACATATATTTATGTATT [CACACA_site3967]” as the sequence, how does the “gcPBM binding intensity (ln)” value read?
**A.** 10.4

**Q.** With “TATAAATAAATGCGTACACACTAATAAAAAAAAAAA [CACACA_site4630]” as the sequence, how does the “gcPBM binding intensity (ln)” value read?
**A.** 9.78

**Q.** With “AATATATTTTAATACACACACACATATATATATATA [CACACA_site5969]” as the sequence, how does the “gcPBM binding intensity (ln)” value read?
**A.** 10.4

**Q.** How did the “gcPBM binding intensity (ln)” value turn out when “TTTTTTTTAAATATCACACACATATAACATATTCTA [CACACA_site7687]” was run?
**A.** 9.82

**Q.** For “ATATGTATATAAATGTGTACTTATAAATATATATAT [XGTACX_site3250]”, which “gcPBM binding intensity (ln)” value is on record?
**A.** 9.87

**Q.** Which “gcPBM binding intensity (ln)” value does the source give for “TTTTTTTTTTTTGAGTGTACTAAAATATTACCTTTT [XGTACX_site646]” here?
**A.** 9.49

**Q.** Which “gcPBM binding intensity (ln)” value does the source give for “TGGAAAAATAGGCACACACACATATATACCTATATA [CACACA_site4843]” here?
**A.** 10.2

**Q.** “AATATTATAAATGATACACACTTAAAATACACCCAC [CACACA_site5498]” was tested. Which “gcPBM binding intensity (ln)” value did it give?
**A.** 10.3

**Q.** With “TGAATATTTACTTTAGCACACAATTTGTATTTGATT [CACACA_site960]” as the sequence, how does the “gcPBM binding intensity (ln)” value read?
**A.** 9.86

**Q.** For “GAATTTATTTTATTTTCACACACAAAAATAAATATC [CACACA_site8762]”, which “gcPBM binding intensity (ln)” value is on record?
**A.** 9.79

**Q.** For “AATAAATAGATATATACACACATATATGTGTACATA [CACACA_site7476]”, which “gcPBM binding intensity (ln)” value is on record?
**A.** 10.1

**Q.** For “TTATCCATTTTAATCACACATACTTTACTTTGGAAC [CACACA_site5584]”, which “gcPBM binding intensity (ln)” value is on record?
**A.** 9.67

**Q.** With “TTCTTTAATAAAATAATCTCAAAGAAAATTTTTTCT [GTGCAC_negctrl_site589]” as the sequence, how does the “gcPBM binding intensity (ln)” value read?
**A.** 9.03

**Q.** For “TATAAACATATAAAAAGTACATACCAATTAATATTA [XGTACX_site967]”, which “gcPBM binding intensity (ln)” value is on record?
**A.** 9.67

**Q.** With “GGATAAAATGCTACGAGTACATAAGCATTTTTCCCT [XGTACX_site7796]” as the sequence, how does the “gcPBM binding intensity (ln)” value read?
**A.** 9.46

**Q.** Which “gcPBM binding intensity (ln)” value does the source give for “TCTTTTAAAAATATAAAAAGGAATATATAAAAATGT [CACACA_negctrl_site332]” here?
**A.** 9.56

**Q.** Which “gcPBM binding intensity (ln)” value does the source give for “AATATATTCATCATATCAATATTGTCAAGCAAACGA [TGCATGCA_negctrl_site37]” here?
**A.** 9.59

**Q.** For “TATTCTGTGTATAAAAGTACAAATATTTAAATGTAT [XGTACX_site8234]”, which “gcPBM binding intensity (ln)” value is on record?
**A.** 9.64

**Q.** How did the “gcPBM binding intensity (ln)” value turn out when “TTGTATATATTAAATTGTACTTATTTTTTGTATATA [XGTACX_site3251]” was run?
**A.** 9.63

**Q.** Which “gcPBM binding intensity (ln)” value does the source give for “TACAATTTAAAACACACACACAATAATACATATATA [CACACA_site1251]” here?
**A.** 11

**Q.** For “TATATTATTTATATTTGTACACAGCGATATGAAATA [XGTACX_site987]”, which “gcPBM binding intensity (ln)” value is on record?
**A.** 9.51

**Q.** “ATATTATTATAAACTTCACACATTTTATGGGTTTTT [CACACA_site4631]” was tested. Which “gcPBM binding intensity (ln)” value did it give?
**A.** 9.71

**Q.** “CGCATATTTTATGTTTGTACTCATATGAATATCATA [XGTACX_site4717]” was tested. Which “gcPBM binding intensity (ln)” value did it give?
**A.** 9.55

**Q.** “CATAAGCACAAGCACAAGCACACATTTATATATATA [CACACA_site882]” was tested. Which “gcPBM binding intensity (ln)” value did it give?
**A.** 9.93

**Q.** How did the “gcPBM binding intensity (ln)” value turn out when “ATAGTAATGCATAAATATATATTATATATATATATA [XGTACX_negctrl_site576]” was run?
**A.** 9.95

**Q.** How did the “gcPBM binding intensity (ln)” value turn out when “CTATTGTTAAATATAATACACACGTTTTTAAAAATA [CACACA_site2183]” was run?
**A.** 9.62

**Q.** Which “gcPBM binding intensity (ln)” value does the source give for “GTATATATTTTGTATTCATTTGTCACATATAATAGA [CACACA_negctrl_site506]” here?
**A.** 9.66

**Q.** Which “gcPBM binding intensity (ln)” value does the source give for “CAAACACCCAAACACACACACACATACATACATACA [CACACA_site8044]” here?
**A.** 10.7

**Q.** How did the “gcPBM binding intensity (ln)” value turn out when “TTTTTTTTTTTTTGTGTGCACCTTATTTTTTTGTAT [GTGCAC_site9617]” was run?
**A.** 9.97

**Q.** With “AAAAAAAAAAAAAATTCACACACATATAAAAAATTA [CACACA_site8140]” as the sequence, how does the “gcPBM binding intensity (ln)” value read?
**A.** 10

**Q.** With “TAAATTAAGAATTTTACACACATTAAATAAAAAAAA [CACACA_site3638]” as the sequence, how does the “gcPBM binding intensity (ln)” value read?
**A.** 9.71

**Q.** With “TTTTTTTATTTTTTTATAAATGTATTTCTATTATTT [CACACA_negctrl_site1562]” as the sequence, how does the “gcPBM binding intensity (ln)” value read?
**A.** 9.69

**Q.** Which “gcPBM binding intensity (ln)” value does the source give for “AAATTAGGAAATTGCACACAAAAAAAAACATATTAT [CACACA_site4074]” here?
**A.** 10.2

**Q.** With “ATTATATATACATAATGTACATATATATATTACCTT [XGTACX_site7624]” as the sequence, how does the “gcPBM binding intensity (ln)” value read?
**A.** 9.74

**Q.** For “TATAAAATGACTATATATAATATTAAAAAAAAAAAA [TGCATGCA_negctrl_site387]”, which “gcPBM binding intensity (ln)” value is on record?
**A.** 9.5

**Q.** For “AAAATTTCTTTTTTTTGTACATATATAATAATATAT [XGTACX_site7107]”, which “gcPBM binding intensity (ln)” value is on record?
**A.** 9.64

**Q.** Which “gcPBM binding intensity (ln)” value does the source give for “TTTGAACGAAAATACTCACACATATTTATAAACATT [CACACA_site5182]” here?
**A.** 9.69

**Q.** “GTATTTTTAAATGACACACACATATATATATATATA [CACACA_site1662]” was tested. Which “gcPBM binding intensity (ln)” value did it give?
**A.** 10.1

**Q.** “ATTTTTCATATATATATATTAATATATATATATTAA [CACACA_negctrl_site1681]” was tested. Which “gcPBM binding intensity (ln)” value did it give?
**A.** 9.61

**Q.** With “AAAAATATATTATATGTACACACAAAATTAAGGGAT [CACACA_site8384]” as the sequence, how does the “gcPBM binding intensity (ln)” value read?
**A.** 10.1

**Q.** How did the “gcPBM binding intensity (ln)” value turn out when “TGAATATTTATACATGCACACTAAAATAAAGAATCT [CACACA_site5351]” was run?
**A.** 9.79

**Q.** “TATAAATAGGCATATACACACTTTTAATATTCATAA [CACACA_site6123]” was tested. Which “gcPBM binding intensity (ln)” value did it give?
**A.** 9.66

**Q.** For “TCTTTCTCTCTTCAAAGTACATATAATATATACTTC [XGTACX_site7982]”, which “gcPBM binding intensity (ln)” value is on record?
**A.** 9.65

**Q.** For “CAGTTAATGTTGGTACTTTATATAAAAATGATATGA [CACACA_negctrl_site1600]”, which “gcPBM binding intensity (ln)” value is on record?
**A.** 9.54

**Q.** Which “gcPBM binding intensity (ln)” value does the source give for “ATAACAACATTTGATAAACACACAGAAGTATAAATA [CACACA_site8739]” here?
**A.** 9.88

**Q.** Which “gcPBM binding intensity (ln)” value does the source give for “AAAATATAGTTATCAATATATAATATTTTTTTTTTA [CACACA_negctrl_site459]” here?
**A.** 9.38

**Q.** With “TTATTAATATTGCATGCACACTATATAATAATTGAA [CACACA_site8258]” as the sequence, how does the “gcPBM binding intensity (ln)” value read?
**A.** 9.63

**Q.** With “TTTGATATAGAAAGAGCATGCAAGTTAGATAAAATA [TGCATGCA_site470]” as the sequence, how does the “gcPBM binding intensity (ln)” value read?
**A.** 9.75

**Q.** How did the “gcPBM binding intensity (ln)” value turn out when “TATATATTAATATACACACACACATATATATATATA [CACACA_site1608]” was run?
**A.** 10.3

**Q.** With “AATAAATTATTATGTACACACATAATAGTATATATA [CACACA_site1820]” as the sequence, how does the “gcPBM binding intensity (ln)” value read?
**A.** 9.83
